In all, about 210,000 compounds went through this assay and about 5,900 (2.8%) were called active. This list was built around the results that the source calls inconclusive (neither active nor inactive); the mix of calls is not that of the screen. Calls follow the shape of the dose curve; as a rule, active = well fitted activation curve with a large enough effect; inconclusive = small, poorly fitted or top-dose-only effect; inactive = no such curve, though single readings can be large or run the other way. Where the call is inconclusive, the potency comes from a doubtful curve fit.
assay: qHTS Assay for Enhancers of SMN2 Splice Variant Expression; conditions: HEK293 SMN2-luciferase splicing reporter, luminescence, 30-36 h; activity change, positive = activation: at 46.1 µM (top of the series); also: nearly all actives have a fitted effect of over 55% in size; as to activity change, positive = activation: % of control where 0% means no effect
Outline: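 HEK293 cells carry an SMN2 minigene-luciferase reporter in which exon 7 inclusion puts luciferase in frame. Cells were seeded at 2000 cells/well, attached for 10-12 hours, then exposed to compounds for 30-36 hours at 37C before ONE-Glo luminescence.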
Potency is read from the fitted curve at half-maximal effect; tags tell the direction and shape of the fitted curve.

Question: With `Cc1ccc(C)o1` as the compound, how does the Potency read?
Answer: The Potency was “inactive”.

Question: For `COc1ccc(OC)c(S(=O)(=O)n2cnc3cc(C)c(C)cc32)c1`, which Potency is on record?
Answer: The Potency was inconclusive: 17.8 µM [activator, single point].

Question: Which Potency does the source give for `COc1cccc(S(=O)(=O)Nc2cccc(C(=O)N3CCOCC3)c2)c1` here?
Answer: The Potency was inconclusive: 0.631 µM [activator, single point].

Question: Which Potency does the source give for `CCS(=O)(=O)N1Cc2ccccc2CC1C(=O)Nc1nc2ccc(F)cc2s1` (centres undefined) here?
Answer: The Potency was active: 14.1 µM.

Question: Which Potency does the source give for `CN(C(=O)CSc1nnc(Cc2cccc3ccccc23)n1N)C1CCS(=O)(=O)C1` (centres undefined) here?
Answer: Its Potency is inconclusive: 2.24 µM [activator, full curve].

Question: For `O=C(N/N=C/c1ccccc1Cl)c1cccc(F)c1`, which Potency is on record?
Answer: Its Potency is active: 22.4 µM.

Question: Which Potency does the source give for `O=C1CC(c2ccc3c(c2)OCO3)Sc2nc3ccccc3n21` (centres undefined) here?
Answer: Its Potency is inconclusive: 25.1 µM [activator, single point].

Question: With `O=C(COc1ccccc1)Nc1ccc2c(c1)nc1n2CCOC1` as the compound, how does the Potency read?
Answer: Its Potency is “inactive”.

Question: For `COc1ccc(Cn2c(-c3ccc(Cl)cc3)c[n+]3ccccc23)cc1`, which Potency is on record?
Answer: Its Potency is inconclusive: 12.6 µM [activator, partial curve].

Question: For `COc1ccc(C(C)C)cc1S(=O)(=O)NCCc1c(C)[nH]c2ccc(C)cc12`, which Potency is on record?
Answer: Its Potency is “inactive”.

Question: For `Cc1coc2c(C)c3oc(=O)c(CCC(=O)NCCc4ccc(Cl)cc4)c(C)c3cc12`, which Potency is on record?
Answer: The Potency was “inactive”.

Question: With `O=S(=O)(Cc1cc(-c2ccccc2)no1)c1ccccc1` as the compound, how does the Potency read?
Answer: Its Potency is inconclusive: 14.1 µM [activator, partial curve].

Question: Which Potency does the source give for `Cc1ccccc1Cn1ccc(NC(=O)c2cnn3c2NC(c2ccccc2)CC3C(F)(F)F)n1` (centres undefined) here?
Answer: Its Potency is inconclusive: 0.0045 µM [activator, full curve, poor fit].

Question: With `Cc1nn(C)c(C)c1CNC(=O)Nc1ccc2c(c1)OCO2` as the compound, how does the Potency read?
Answer: The Potency was inconclusive: 35.5 µM [activator, single point].

Question: Which Potency does the source give for `Cc1ccc(SCCC(=O)N2CCC(C)CC2)cc1` here?
Answer: The Potency was inconclusive: 25.1 µM [activator, single point].

Question: With `CC(C)CC(C(=O)O)N1C(=O)[C@@H]2[C@H](C1=O)[C@@H]1C[C@H]2C(Br)C1Br` (some centres undefined) as the compound, how does the Potency read?
Answer: The Potency was inconclusive: 31.6 µM [activator, single point].

Question: For `C=CCNc1oc(-c2ccc(OC)cc2)nc1C#N`, which Potency is on record?
Answer: The Potency was inconclusive: 22.4 µM [activator, single point].

Question: Which Potency does the source give for `Cc1cccc(C)c1NC(=S)NNc1ncc(C(F)(F)F)cc1Cl` here?
Answer: The Potency was inconclusive: 25.1 µM [activator, single point].

Question: For `COc1ccccc1/C=C/c1nc(C#N)c(N(C)C)o1`, which Potency is on record?
Answer: Its Potency is active: 10 µM.

Question: With `CCOC(=O)c1ccc(NC(=O)CC2C(=O)N(c3cccc(OC)c3)C(=O)N2CCOC)cc1` (centres undefined) as the compound, how does the Potency read?
Answer: The Potency was active: 3.98 µM.

Question: Which Potency does the source give for `O=C1CC(Sc2ncccc2C(=O)O)C(=O)N1` (centres undefined) here?
Answer: The Potency was inconclusive: 15.8 µM [activator, single point].

Question: For `Cc1cc(C)n2cc(CSc3nc4ccccc4s3)nc2n1`, which Potency is on record?
Answer: The Potency was active: 11.2 µM.

Question: For `COc1ccc(-n2cnnc2SCC(=O)c2cc(C)n(Cc3cccs3)c2C)cc1`, which Potency is on record?
Answer: The Potency was “inactive”.

Question: With `Cc1ccc(-c2csc(-c3ccncc3)n2)cc1` as the compound, how does the Potency read?
Answer: Its Potency is inconclusive: 35.5 µM [activator, single point].

Question: Which Potency does the source give for `CCOC(=O)Nc1ccc(NC(=O)c2ccccc2F)cc1` here?
Answer: The Potency was inconclusive: 35.5 µM [activator, single point].

Question: Which Potency does the source give for `Cc1ccc(O)c(-c2cc(-c3cccc(F)c3)n[nH]2)c1` here?
Answer: Its Potency is inconclusive: 0.251 µM [activator, full curve, poor fit].

Question: With `CCCOc1cccc(C2/C(=C(/O)c3ccncc3)C(=O)C(=O)N2CCCN(C)C)c1` (centres undefined) as the compound, how does the Potency read?
Answer: The Potency was inconclusive: 0.0032 µM [activator, full curve, poor fit].

Question: With `Clc1ccccc1C1CC(c2ccccc2)Nc2ncnn21` (centres undefined) as the compound, how does the Potency read?
Answer: The Potency was inconclusive: 20 µM [activator, partial curve, poor fit].

Question: With `CCCNC(=O)CSc1nc2nc(C)c(Cc3ccccc3Cl)c(C)n2n1` as the compound, how does the Potency read?
Answer: Its Potency is “inactive”.

Question: Which Potency does the source give for `CCc1ccc(CNC(=O)CSc2cc(=O)n(C)c3ccc(Cl)cc23)cc1` here?
Answer: Its Potency is “inactive”.

Question: With `CC(C)Cc1csc(NC(=O)c2ccc(F)cc2)c1C(=O)O` as the compound, how does the Potency read?
Answer: Its Potency is inconclusive: 17.8 µM [activator, single point].

Question: For `Cc1nc2ccc(N=NC3=C(O)CCCC3=O)cc2s1`, which Potency is on record?
Answer: The Potency was inconclusive: 35.5 µM [activator, single point].

Question: Which Potency does the source give for `N#Cc1nc(-c2ccc(Cl)cc2)oc1NCC1CCCO1` (centres undefined) here?
Answer: The Potency was inconclusive: 20 µM [activator, partial curve, poor fit].

Question: With `CN(C)c1cccc(C(=O)OCC(=O)N2CCc3ccccc3C2)c1` as the compound, how does the Potency read?
Answer: The Potency was inconclusive: 14.1 µM [activator, single point].

Question: Which Potency does the source give for `CCOc1ccc(NC(=O)Cn2cc(C(=O)c3ccc(C)c(C)c3)c(=O)c3cc4c(cc32)OCCO4)cc1` here?
Answer: The Potency was “inactive”.

Question: Which Potency does the source give for `Nn1c(-c2ccccn2)nnc1-c1ccccn1` here?
Answer: Its Potency is inconclusive: 10 µM [activator, partial curve, poor fit].

Question: Which Potency does the source give for `CCOc1ccc(NC(=O)CSc2nccn2C)cc1` here?
Answer: Its Potency is inconclusive: 35.5 µM [activator, single point].

Question: Which Potency does the source give for `CCOc1ccc(-c2nc(SCC(=O)NCCOC)c(-c3ccc(OC)c(OC)c3)[nH]2)cc1` here?
Answer: Its Potency is “inactive”.

Question: Which Potency does the source give for `O=C(COc1ccc2c(c1)CCC2)N1CCc2ccccc21` here?
Answer: The Potency was inconclusive: 14.1 µM [activator, single point].

Question: For `CCC(C(=O)NC1CCCC1)N(Cc1ccc2c(c1)OCO2)C(=O)c1snc(C(N)=O)c1N` (centres undefined), which Potency is on record?
Answer: The Potency was inconclusive: 35.5 µM [activator, single point].

Question: Which Potency does the source give for `COc1cccc(/C=N/NC(=O)CSc2ccccc2C)c1O` here?
Answer: The Potency was “inactive”.

Question: With `COc1cccc(NC(=O)CSc2nc3ccccc3nc2N2CCOCC2)c1` as the compound, how does the Potency read?
Answer: Its Potency is active: 3.98 µM.

Question: For `Cc1cc2nc(-c3ccc(SCC(=O)N4CCc5ccccc54)nc3)[nH]c2cc1C`, which Potency is on record?
Answer: Its Potency is active: 2.51 µM.

Question: For `Cc1ccccc1NC(=O)c1sc2nc3c(cc2c1N)CCCC3`, which Potency is on record?
Answer: The Potency was inconclusive: 3.16 µM [activator, single point].

Question: For `Cc1ccc(C)c(N2CCN(C(=O)c3ccc(CS(=O)(=O)c4ccc(Br)cc4)o3)CC2)c1`, which Potency is on record?
Answer: The Potency was inconclusive: 2 µM [activator, partial curve, poor fit].

Question: Which activity change, positive = activation does the source give for `CCSc1nc(N)nc(-c2cccs2)c1C#N` here?
Answer: The activity change, positive = activation was inconclusive: 39.2% [activator].

Question: Which Potency does the source give for `FC(F)Oc1ccc(NC(=S)NCc2nc3ccccc3[nH]2)cc1` here?
Answer: The Potency was inconclusive: 11.2 µM [activator, single point].

Question: With `CCOC(=O)c1sc(NC(=O)c2sccc2C)cc1C` as the compound, how does the Potency read?
Answer: Its Potency is active: 6.31 µM.

Question: For `Cc1ccccc1NC1=NCC(c2ccc([N+](=O)[O-])cc2)S1` (centres undefined), which Potency is on record?
Answer: Its Potency is inconclusive: 35.5 µM [activator, single point].

Question: With `Cc1ccc(C(=O)Nc2ccc3c(c2)OCO3)cc1NC(=O)c1ccco1` as the compound, how does the Potency read?
Answer: Its Potency is inconclusive: 8.91 µM [activator, partial curve].

Question: With `Cc1ccc(Sc2cnc3ccccc3n2)cc1` as the compound, how does the Potency read?
Answer: The Potency was inconclusive: 15.8 µM [activator, single point].

Question: For `CCc1nnc(NS(=O)(=O)c2ccc(N/C=C\C(=O)c3cccc4ccccc34)cc2)s1`, which Potency is on record?
Answer: The Potency was “inactive”.

Question: With `COc1ccc(/C=C/C(=O)O/N=C(\N)c2ccccc2)cc1OC` as the compound, how does the Potency read?
Answer: Its Potency is inconclusive: 20 µM [activator, single point].

Question: Which Potency does the source give for `C=CCNC(=O)c1sc(-c2ccccc2)nc1C` here?
Answer: The Potency was inconclusive: 17.8 µM [activator, partial curve].

Question: With `CC(=O)c1c(C)[nH]c(C(=O)CSc2nnc(C)s2)c1C` as the compound, how does the Potency read?
Answer: Its Potency is inconclusive: 0.0891 µM [activator, full curve, poor fit].

Question: Which Potency does the source give for `CCCc1cc2c(n1CCc1ccc(Cl)cc1)C(C)C1CN(C(=O)c3ccccc3)C(C)(C(=O)OC)C21` (centres undefined) here?
Answer: Its Potency is “inactive”.

Question: With `COC(=O)c1ccc(NS(=O)(=O)c2ccc3c(c2)oc(=O)n3C)cc1` as the compound, how does the Potency read?
Answer: The Potency was “inactive”.

Question: Which Potency does the source give for `COc1ccc(-c2csc3ncnc(NCCN4CCOCC4)c23)cc1` here?
Answer: Its Potency is “inactive”.

Question: For `CCOC(=O)c1c(N/N=C/c2ccncc2)n[nH]c1C`, which Potency is on record?
Answer: The Potency was inconclusive: 31.6 µM [activator, single point].

Question: Which Potency does the source give for `COc1ccc(NC(=O)c2oc3ccccc3c2C)c(OC)c1` here?
Answer: Its Potency is inconclusive: 17.8 µM [activator, single point].

Question: Which Potency does the source give for `CCn1nnc(NC(=O)c2cccc(-c3cc4ccccc4oc3=O)c2)n1` here?
Answer: The Potency was active: 12.6 µM.

Question: For `COc1ccccc1C(=O)Nc1ccc(C(=O)N2CCCC2)cc1`, which Potency is on record?
Answer: The Potency was inconclusive: 7.94 µM [activator, partial curve].

Question: Which Potency does the source give for `CC1=CC2=NC(=O)/C(=C\c3cccn3CCOc3ccccc3)C(=N)N2O1` here?
Answer: The Potency was inconclusive: 3.55 µM [activator, partial curve].

Question: With `Cc1cccc(NC(=O)COc2cccc3c2CCN(C)C3=O)c1C` as the compound, how does the Potency read?
Answer: The Potency was “inactive”.

Question: Which Potency does the source give for `CCN(CC)c1ccc(/C=N/N2C(=O)c3ccccc3C2=O)c(O)c1` here?
Answer: Its Potency is inconclusive: 35.5 µM [activator, single point].

Question: Which Potency does the source give for `COc1ccc(-c2nnn3c2nc(NCCc2ccc(OC)c(OC)c2)c2ccccc23)cc1` here?
Answer: Its Potency is “inactive”.

Question: With `COc1ccc(NC(=O)CSc2nnc(C3CCCCC3)n2-c2ccccc2)cc1` as the compound, how does the Potency read?
Answer: The Potency was “inactive”.

Question: For `O=C(c1cccc(-c2nnc(-c3ccccc3)o2)c1)N1CCCCCC1`, which Potency is on record?
Answer: Its Potency is inconclusive: 25.1 µM [activator, single point].

Question: For `CSc1ccc(NC(=O)c2cccnc2)cc1C#N`, which Potency is on record?
Answer: The Potency was “inactive”.

Question: For `Cc1nc2c([N+](=O)[O-])c(C)c(C)cc2[nH]1`, which Potency is on record?
Answer: Its Potency is “inactive”.

Question: Which Potency does the source give for `CCOc1ccc(C(C#N)N2CCOCC2)cc1OC` (centres undefined) here?
Answer: Its Potency is inconclusive: 0.501 µM [activator, full curve].

Question: For `COc1cc(/C=N/N2CCOCC2)ccc1OCc1ccccc1`, which Potency is on record?
Answer: The Potency was inconclusive: 31.6 µM [activator, single point].

Question: With `COc1ccccc1C(=O)O/N=C(\N)c1ccc(Cl)cc1` as the compound, how does the Potency read?
Answer: The Potency was inconclusive: 11.2 µM [activator, partial curve].

Question: With `Cc1sc(/N=C/c2ccccc2O)c(C#N)c1C` as the compound, how does the Potency read?
Answer: Its Potency is inconclusive: 7.08 µM [activator, full curve, poor fit].
